Reference: the RNAGym collection of RNA variant scans (doi:10.1101/gad.245936.114)
Variants at the background level are over-represented here.

B1: tRNA (parent)
chain: CUCUCGGUAGCCAAGUUGGUUUAAGGCGCAAGACUUUAAUUUAUCACUACGAAAUCUUGAGAUCGGGCGUUCGACUCGCCCCCGGGAGAUUUUUUCCUCGAGCAA

Variants of: B1
Assay: nonsense suppression (GFP-seq) (ratio to wild type); higher = more function; SUP4oc tRNA, yeast GFP reporter sort-seq
In short: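 Yeast carrying genome-integrated SUP4oc tRNA variants from a library with ~3% random mutations were grown in raffinose/galactose medium with 80 mg/L adenine. Each strain also carried a galactose-driven GFP ochre reporter and RFP. Cells were sorted into GFP/RFP bins, and each bin was Illumina-sequenced (phred ≥30). Nonsense suppression (GFPSEQ) is the bin median GFP/RFP, weighted by each variant's estimated cell share per bin, relative to wild-type SUP4oc; variants needed ≥100 reads and ≥30 cells.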

Variant	nonsense suppression
CUCUCGGUAGCCAAGUUGGUUUAAGGCGCAAGACUUUAAUUUAUCACUACGAAAUCUUAAGAUCGGGCAUUCGACUCGCCCCCGGGAGAUUUUUUCCUCGAGCAA [G59A G69A]	≤ 0.026
CUCUCGGUAGCCAAGUUGGUUUAAGGCGCAAGACUUUAAUUUAUCACUACGAAAUCUUAAGAUCGGGCGUUCGAAUCGCCCCCGGGAGAUUUUUUCCUCGAGCAA [G59A C75A]	0.717
CUCUCGGUAGCCAAGUUGGUUUAAGGCGCAAGACUUUAAUUUAUCACUACGAAAUCUUAAGAUCGGGCGUUCGAGUCGCCCCCGGGAGAUUUUUUCCUCGAGCAA [G59A C75G]	≤ 0.026
CUCUCGGUAGCCAAGUUGGUUUAAGGCGCAAGACUUUAAUUUAUCACUACGAAAUCUUAAGAUCGGGGGUUCGACUCGACCCCGGGAGAUUUUUUCCUCGAGCAA [G59A C68G C79A]	≤ 0.026
CUCUCGGUAGCCAAGUUGGUUUAAGGCGCAAGACUUUAAUUUAUCACUACGAAAUCUGGAGAUCGGUCGUUCGACUAGCCCCCGGGAGAUUUUUUCCUCGAGCAA [U58G G67U C77A]	≤ 0.026
CUCUCGGUAGCCAAGUUGGUUUAAGGCGCAAGACUUUAAUUUAUCACUACGAAAUCUUAAGAUCGGGCGUACGACUCGACCCCGGGACAUUUUUUCCUCGAGCAA [G59A U71A C79A G88C]	≤ 0.026
CUCUCGGUAGCCAAGUUGGUUUAAGGCGCAAGACUUUAAUUUAUCACUACGAAAUCUGCAGAUCUGGCGUUCGACUCGCCCCCGGGAGAUUUUUUCCUCGAGCAA [U58G G59C G65U]	≤ 0.026
CUCUCGGUAGCCAAGUUGGUUUAAGGCGCAAGACUUUAAUUUAUCACUACGAAAUCUUCCGAUCGGGCGUUCGACUCGCCCCCGGGAGAUUUUUUCCUCGAGCAA [G59C A60C]	≤ 0.026
CUCUCGGUAGCCAAGUUGGUUUAAGGCGCAAGACUUUAAUUUAUCACUACGAAAUCUGUAGAUCGGGCGUUCGACUCGCCCCCGGGAGAUUUUUUCCUCGAGCAA [U58G G59U]	≤ 0.026
CUCUCGGUAGCCAAGUUGGUUUAAGGCGCAAGACUUUAAUUUAUCACUACGAAAUCUUAAGAUCGGGCGUGCGACUCGCCACCGGGAGAUUUUUUCCUCGAGCAA [G59A U71G C81A]	≤ 0.026
CUCUCGGUAGCCAAGUUGGUUUAAGGCGCAAGACUUUAAUUUAUCACUACGAAAUCUUAAGAUCGGGCGUUCGACACGCCCCCGGGAGAUUUUUUCCUCGAGCAA [G59A U76A]	≤ 0.026
CUCUCGGUAGCCAAGUUGGUUUAAGGCGCAAGACUUUAAUUUAUCACUACGAAAUCUUAAGAUCGGGCGUUCGACUUGCCCCCGUGAGAUUUUUUCCUCGAGCAA [G59A C77U G85U]	≤ 0.026
CUCUCGGUAGCCAAGUUGGUUUAAGGCGCAAGACUUUAAUUUAUCACUACGAAAUCUGGCGUUCGGGCGUUCGACUCGCCCCCGGGAGAUUUUUUCCUCGAGCAA [U58G A60C A62U]	≤ 0.026
CUCUCGGUAGCCAAGUUGGUUUAAGGCGCAAGACUUUAAUUUAUCACUACGAAAUCUUAAGAUCGGGCGUUCGACUCGCCCCUGGGAGAUUUUUUCCUCGAGCAA [G59A C83U]	≤ 0.026
CUCUCGGUAGCCAAGUUGGUUUAAGGCGCAAGACUUUAAUUUAUCACUACGAAAUCUGGAGAUCGGGCGUUCGACUCGCCCCCGAGAGAUUUUUUCCUCGAGCAA [U58G G85A]	0.0573
CUCUCGGUAGCCAAGUUGGUUUAAGGCGCAAGACUUUAAUUUAUCACUACGAAAUCUGGAGAUCGGGCGGUCGACUCGCCCCCGGGAGAUUUUUUCCUCGAGCAA [U58G U70G]	≤ 0.026
CUCUCGGUAGCCAAGUUGGUUUAAGGCGCAAGACUUUAAUUUAUCACUACGAAAUCUGGAAAUCGGGCAUUCGACUCGCCCCCGGGAGAUUUUUUCCUCGAGCAA [U58G G61A G69A]	≤ 0.026
CUCUCGGUAGCCAAGUUGGUUUAAGGCGCAAGACUUUAAUUUAUCACUACGAAAUCUGGAGAUCGGGUGUUCGACUCGCCCCCGGGAGCUUUUUUCCUCGAGCAA [U58G C68U A89C]	≤ 0.026
CUCUCGGUAGCCAAGUUGGUUUAAGGCGCAAGACUUUAAUUUAUCACUACGAAAUCUGGAGAUCGGGCGUUCGACUCGCCCCCGUUAGAUUUUUUCCUCGAGCAA [U58G G85U G86U]	≤ 0.026
CUCUCGGUAGCCAAGUUGGUUUAAGGCGCAAGACUUUAAUUUAUCACUACGAAAUCUGGAGAUCGUGCGUUCGAAUCGCCCCCGGGAGAUUUUUUCCUCGAGCAA [U58G G66U C75A]	≤ 0.026
CUCUCGGUAGCCAAGUUGGUUUAAGGCGCAAGACUUUAAUUUAUCACUACGAAAUCUUAAGAUCGGGCGUUCGACUCCCCCGCGCGAGAUUUUUUCCUCGAGCAA [G59A G78C C82G G85C]	≤ 0.026
CUCUCGGUAGCCAAGUUGGUUUAAGGCGCAAGACUUUAAUUUAUCACUACGAAAUCUGGAGUUCGGGCGUUCGACUCGCCCCCGGAAAAUUUUUUCCUCGAGCAA [U58G A62U G86A G88A]	≤ 0.026
CUCUCGGUAGCCAAGUUGGUUUAAGGCGCAAGACUUUAAUUUAUCACUACGAAAUCUUAAGAUCGGGCGAUCGACUCGCCCCCGGGAGAUUUUUUCCUCGAGCAA [G59A U70A]	≤ 0.026
CUCUCGGUAGCCAAGUUGGUUUAAGGCGCAAGACUUUAAUUUAUCACUACGAAAUCUUAAGAUCGGGCGUUCGACUCGGCCCCGGGAGAUUUUUUCCUCGAGCAA [G59A C79G]	≤ 0.026
CUCUCGGUAGCCAAGUUGGUUUAAGGCGCAAGACUUUAAUUUAUCACUACGAAAUCUUAAGAUCGGGCCUUCGACGCGCACCCGGGAGAUUUUUUCCUCGAGCAA [G59A G69C U76G C80A]	≤ 0.026
CUCUCGGUAGCCAAGUUGGUUUAAGGCGCAAGACUUUAAUUUAUCACUACGAAAUCUCGAGAUCGGGCGUUCGACUCGCCCCCGGAAGAUUUUUUCCUCGAGCAA [U58C G86A]	≤ 0.026
CUCUCGGUAGCCAAGUUGGUUUAAGGCGCAAGACUUUAAUUUAUCACUACGAAAUCUUAAGAUCGGGCGUUCGACUCGCCCCCGGGAGCUUUUUUCCUCGAGCAA [G59A A89C]	≤ 0.026
